Among all 310,000 compounds or so, about 14,000 (4.5%) showed an effect of 50% or more. The effect is printed as a negative number. The list shows a part of the results.
What follows are compounds tested against human ether-à-go-go-related gene (hERG) potassium channel (human, UniProt Q12809) (assay: primary screen, population patch clamp on CHO cells stably expressing hERG).
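Further: peak tail current of the secondary pulse compared with the same well before compound.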

Chain of human ether-à-go-go-related gene (hERG) potassium channel (Q12809 whole entry, looked up): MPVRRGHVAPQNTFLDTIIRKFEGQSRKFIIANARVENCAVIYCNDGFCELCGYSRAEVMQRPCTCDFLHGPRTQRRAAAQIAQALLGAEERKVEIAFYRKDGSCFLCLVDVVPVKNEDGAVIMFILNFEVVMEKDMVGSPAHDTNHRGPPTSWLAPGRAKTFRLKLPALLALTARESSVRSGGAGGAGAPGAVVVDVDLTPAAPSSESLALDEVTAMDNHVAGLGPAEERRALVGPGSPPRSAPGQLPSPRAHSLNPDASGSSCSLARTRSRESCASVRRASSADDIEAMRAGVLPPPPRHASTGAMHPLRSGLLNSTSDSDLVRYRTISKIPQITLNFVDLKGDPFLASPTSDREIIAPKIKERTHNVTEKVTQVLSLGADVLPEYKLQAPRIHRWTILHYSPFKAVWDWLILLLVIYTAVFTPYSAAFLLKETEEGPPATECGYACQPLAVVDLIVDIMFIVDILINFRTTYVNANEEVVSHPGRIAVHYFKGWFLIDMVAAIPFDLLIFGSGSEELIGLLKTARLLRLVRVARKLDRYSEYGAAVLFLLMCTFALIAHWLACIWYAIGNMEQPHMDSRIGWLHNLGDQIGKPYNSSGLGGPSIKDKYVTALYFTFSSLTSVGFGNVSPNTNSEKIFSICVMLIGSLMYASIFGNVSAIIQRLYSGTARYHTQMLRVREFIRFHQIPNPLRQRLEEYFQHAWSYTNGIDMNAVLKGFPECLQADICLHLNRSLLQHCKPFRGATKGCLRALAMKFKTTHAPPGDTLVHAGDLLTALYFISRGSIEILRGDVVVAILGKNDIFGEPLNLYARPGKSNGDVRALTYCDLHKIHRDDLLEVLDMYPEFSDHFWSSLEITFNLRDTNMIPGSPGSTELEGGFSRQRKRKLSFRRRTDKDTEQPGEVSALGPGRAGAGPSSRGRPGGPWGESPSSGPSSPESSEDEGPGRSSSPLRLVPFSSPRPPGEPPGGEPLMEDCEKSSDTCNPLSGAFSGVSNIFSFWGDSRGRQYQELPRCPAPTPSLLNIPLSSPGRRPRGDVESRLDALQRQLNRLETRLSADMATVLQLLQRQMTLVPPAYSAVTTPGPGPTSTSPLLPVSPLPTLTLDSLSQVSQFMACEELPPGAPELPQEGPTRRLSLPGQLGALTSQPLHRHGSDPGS

| SMILES | hERG current change (%, negative = inhibition) at 10uM [%] |
| --- | --- |
| C=CCNC(=O)/C(=C\c1ccco1)NC(=O)c1ccco1 | 26 |
| C/C(=N\NC(=S)Nc1cccc(C)c1)c1cccc(N)c1 | 2.53 |
| C/C=C(\C)C(=O)OC(C)(C)[C@H]1Cc2cc3ccc(=O)oc3cc2O1 | -23.2 |
| O=C(O)CC/C(=C\c1cccc(NC(=O)c2ccccc2Cl)c1)c1nc2ccccc2s1 | -2.23 |
| O=Cc1sc(=O)n(Cc2cccc(C(=O)O)c2)c1Cl | 8.41 |
| CC(C)Oc1ccc(CCc2n[nH]c(=S)n2Cc2ccccc2)cc1 | 14.8 |
| OCC1(Cc2ccccc2)CCN(C2CCN(c3ccc(F)c(F)c3)CC2)CC1 | -112 |
| Cc1[nH]nc2c1C(c1ccsc1)C(C#N)=C(N)O2 (stereo not shown) | 12.6 |
| Cc1nnc(N2C(=O)C(O)=C(C(=O)c3ccco3)C2c2cccc3ccccc23)s1 (stereo not shown) | -0.387 |
| CCOC(=O)CN(C)S(=O)(=O)c1ccc(-c2cc(C(=O)OC)sc2C(F)(F)F)cc1 | 2.27 |
| Cc1ccc(/C=C2/SC(=S)N(CCCC(=O)Nc3cc([N+](=O)[O-])ccc3O)C2=O)cc1 | 13.1 |
| O=C(Nc1cc(S(=O)(=O)N2CCCCC2)ccc1N1CCOCC1)c1cc(=O)[nH]c2ccccc12 | 10.7 |
| Cc1noc(C)c1S(=O)(=O)N1CCCN(C(=O)/C=C/c2ccccc2F)CC1 | -70.9 |
| O=C1OC(Nc2ccc(F)cc2F)c2ccccc21 (stereo not shown) | 1.38 |
| Cc1ccc(-c2ccc(/C=N/n3cnnc3)o2)cc1Cl | -22.5 |
| CNC(=S)N=Nc1c(O)[nH]c2ccccc12 | 2.34 |
| Cc1ccccc1OCC(=O)O/N=C(\N)c1ccncc1 | -2.52 |
| Cc1cccc(C(=O)OCC(=O)NC(C)CCc2ccccc2)c1O (stereo not shown) | 10 |
| CC(CNc1ccc([N+](=O)[O-])cc1)NC(=O)c1ccccc1Br (stereo not shown) | -50.6 |
| O=C(CSc1nc2c(cnn2-c2ccc(F)cc2)c(=O)[nH]1)N1CCOCC1 | 0.142 |
| COc1cccc(/C=N/n2c(N)c(S(=O)(=O)c3cccs3)c3nc4ccccc4nc32)c1OC | 10.5 |
| O=C1CC(NS(=O)(=O)c2cccs2)CN1c1ccc(F)cc1 (stereo not shown) | 4.25 |

| SMILES | hERG current change (%, negative = inhibition) at 10uM [%] |
| --- | --- |
| CC(C)N(C)C(=O)c1ccc(OC2CCN(CCc3ccccc3)CC2)cc1 | -40.8 |
| CN1CCc2c(sc3nc(NN)n(-c4ccc(Cl)cc4)c(=O)c23)C1 | 14.6 |
| CCNc1ccc(S(=O)(=O)N(C)C)cc1NCC(=O)Nc1ccc(F)c(Cl)c1 | -4.33 |
| CC1=CC(C)(C)NC(=S)N1c1ccccc1 | 13.6 |
| CCc1ccccc1NC(=O)N1CCc2ccccc21 | 8.83 |
| O=S(=O)(NC1CCCCCC1)c1ccc(Br)s1 | -29.3 |
| CCCCC1=CC2=CC(=O)C(C)(OC(=O)CC)C(=O)C2=CN1C1CCCC1 (stereo not shown) | -49.4 |
| CC(C)c1c(C(=O)N/N=C/c2ccsc2)nnn1-c1nonc1N | 23.8 |
| Cc1nn(-c2ccccc2)c(Cl)c1/C=N/NC(=O)c1ccn[nH]1 | -5.12 |
| CN(C)C1(CNC(=O)Nc2ccc(Cl)c(Cl)c2)CCCCC1 | -50.1 |
| COc1ccc2c(c1)C(SCC(=O)NCCc1ccccc1)CC(C)(C)O2 (stereo not shown) | -18.5 |
| CC(C)C[C@H](NC(=O)N1CCn2c1nc1ccccc12)C(=O)N[C@@H](C(=O)O)c1ccccc1 | -9.47 |
| CSCCC(NS(=O)(=O)c1ccccc1F)C(=O)Nc1ccncc1 (stereo not shown) | -10.8 |
| CC1CCCN(Cc2nc3c(c(=O)n(C)c(=O)n3C)n2CCc2ccccc2)C1 (stereo not shown) | 1.9 |
| CC(C)NC(=O)c1onc(CSc2ccc(F)cc2)c1C(=O)NC(C)C | 1.14 |
| CCN1CCN(C(=O)C2CCN(S(=O)(=O)c3ccc4c(c3)NC(=O)C(C)S4)CC2)CC1 (stereo not shown) | 14.1 |
| COc1ccc(OC)c(Nc2nnc(C)c(=O)[nH]2)c1 | 6.27 |
| COc1ccc(S(=O)(=O)N2CCN(C)CC2)cc1 | 6.84 |
| CCc1cccc(CC)c1N(COC)C(=O)Cn1cnc2ccccc21 | -2.29 |
| CC1CCCCN1C(=O)Cc1ccc(Cl)cc1 (stereo not shown) | -11.1 |
| COc1cc(C(=O)Nc2cccc(-c3nc4ncccc4o3)c2C)cc(OC)c1OC | 6.71 |
| COC(=O)C1=CO[C@@H](O[C@@H]2O[C@H](CO)[C@@H](O)[C@H](O)[C@H]2O)C2C1C[C@H](O)[C@@H]2C (stereo partly shown) | 17.8 |

| SMILES | hERG current change (%, negative = inhibition) at 10uM [%] |
| --- | --- |
| Cc1csc(SCC(=O)NCc2ccccc2)n1 | 31.5 |
| CNC(=O)c1c(NC(=O)C2=COCCO2)sc2c1CCCC2 | 2.86 |
| O=C(CCS(=O)(=O)c1cccc2nsnc12)NCc1ccccc1 | -1.13 |
| CC(C)Sc1cc(N2CCCC2)nc(-c2ccc(F)cc2)n1 | -2 |
| CCOc1ccc(CCNC(=O)COC(=O)/C=C/c2ccc(OCC#N)c(OC)c2)cc1OCC | -9.35 |
| O=C(CSc1nc(-c2ccccc2)c(-c2ccccc2)o1)Nc1nnc(-c2ccccc2)s1 | 13.5 |
| CCSc1nnc(NC(=O)CN2C(=O)C3CC=CCC3C2=O)s1 (stereo not shown) | 30.6 |
| COc1cccc(C=Nc2ccc3c(c2)CCC3)c1O | 11.8 |
| CC(=O)c1cccc(NC(=O)C(OC(=O)c2ccccc2NS(=O)(=O)c2cccs2)c2ccccc2)c1 (stereo not shown) | 7.75 |
| CN1CCN(Cc2cc(COCc3ccccc3)c3cccnc3c2O)CC1 | -24.9 |
| NC(=O)c1c(NC(=S)Nc2ccc(F)cc2)sc2c1CCCC2 | 21.9 |
| Cc1ccccc1C(=O)c1cccn1CC(=O)NCc1ccccc1Cl | 13.4 |
| COCc1ccc(C(=O)Nc2ccc(C(=O)O)cc2)o1 | -1.08 |
| CCOC(=O)c1cccc(NC(=O)CCn2nnc3ccccc32)c1 | -13.9 |
| COc1ccc(CNC(=O)C(OC(=O)c2ccco2)c2ccccc2)cc1 (stereo not shown) | -19.4 |
| N#C/C(=C\c1ccccc1O)C(=O)Nc1ccccn1 | 10.1 |
| O=C(c1ccccc1)c1cccn1CC(=O)N1CCN(c2ccccc2)CC1 | -9.33 |
| Cc1ccc(S(=O)(=O)Cc2cc(-c3ccc(Cl)cc3)no2)cc1 | 15.7 |
| COc1cc(OC)cc(-c2cc3nc(C)c(CCC(=O)O)c(=O)n3[nH]2)c1 | -0.0544 |
| COCCC(=O)N1CCC(Oc2ccc(C(=O)N3CCC(N(C)C)C3)cc2)CC1 (stereo not shown) | 20.7 |
| CN(C)CCOCCOc1ccc(Cl)cc1Br.O=C(O)C(=O)O | -42.6 |
| CC(=O)N1c2ccc(S(=O)(=O)N3CCCCC3)cc2CC1C(=O)Nc1cccc(C)c1 (stereo not shown) | -1.17 |

| SMILES | hERG current change (%, negative = inhibition) at 10uM [%] |
| --- | --- |
| COc1ccccc1C(=O)NC(=O)COC(=O)c1oc2ccccc2c1C | 1.8 |
| CCOc1ccc(N2CC(C(=O)NCCCN3CCOCC3)CC2=O)cc1 (stereo not shown) | -5.47 |
| CCc1nnc(NC(=O)CSc2nnc(-c3ccccc3O)n2CC)s1 | -7.99 |
| O=C(NN=C1CCCCCCCCCCC1)c1cccnc1 | 19.8 |
| CCOc1ccccc1NC(=O)CCc1nnc2ccc(N3CCC(C)CC3)nn12 | -17.5 |
| COC(=O)c1cc(S(=O)(=O)N2CCN(c3ccc(OC)cc3)CC2)cn1C | 10.1 |
| CC(=O)Nc1cc2c(cc1C(=O)C(C)C)OCCO2 | 1.33 |
| Cc1cc(C(=O)CN2C(=O)c3ccccc3C2=O)c(C)n1Cc1cccs1 | 1.03 |
| O=C(Nc1nnc(C(F)(F)F)s1)c1cccnc1 | 7.36 |
| Cc1cc(C(=O)N2CCCC(N3CCN(c4cccc(C(F)(F)F)c4)CC3)C2)n[nH]1 (stereo not shown) | -53.2 |
| COc1cccc(N=Cc2c(O)n(-c3cccc(C)n3)c(=O)c3ccccc23)c1 | -11.5 |
| CC(C)CC(=O)Nc1ccc([N+](=O)[O-])cc1Cl | 23.3 |
| COc1ccc(N(CC(=O)Nc2ccc(C)c(C)c2)S(=O)(=O)c2c(C)n[nH]c2C)cc1 | 8.31 |
| CCCCNC(=O)C1c2cc(OC)c(OC)cc2C(=O)N(C)C1c1cccs1 (stereo not shown) | -5.73 |
| CC(=O)N1C(=O)C2(Nc3ccccc3N2)c2ccccc21 | 9.28 |
| COc1ccc(C2CC(c3cccs3)=NN2c2ccc(C=O)cc2)cc1 (stereo not shown) | -3.68 |
| COc1cc(C(O)c2nc3ccccc3n2C)cc(OC)c1OC (stereo not shown) | 0.332 |
| O=C(COC(=O)CNC(=O)c1cccc([N+](=O)[O-])c1)Nc1cccc(S(=O)(=O)N2CCCC2)c1 | -2.19 |
| NC(=O)c1ccccc1OCCOCCOCCOc1ccccc1C(N)=O | -16.1 |
| COc1ccccc1OCc1ccc(C(=O)NCC2CCCO2)o1 (stereo not shown) | -7.04 |
| Cc1[nH]n2c(=O)cc(Cc3ccccc3)nc2c1C#N | -7.67 |
| Cc1ccc(CN2CCN(Cc3cn[nH]c3C3CCCCC3)CC2CCO)cc1 (stereo not shown) | -62.9 |
